Assay results: PubChem BioAssay AID743279 (National Center for Advancing Translational Sciences (NCATS), 2014)
Out of some 360,000 compounds screened, about 17,000 (4.7%) were called active. Inconclusive results, whose numbers are uncertain, are shown with a selection of clear calls. Cut-off read from the data, not from the text of the source: active = activity change below about -50%; inconclusive = mostly about -30% to -49%; inactive = weaker than that.

experiment: qHTS for Inhibitors of Inflammasome Signaling: IL-1-beta AlphaLISA Primary Screen; conditions: THP-1 LPS/ATP IL-1B secretion, 16 h; at 57.5 µM, hits give low values
Summary of the method: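 Secreted IL-1B measured by AlphaLISA bead assay after 16 h compound exposure of THP-1 cells; compounds (final up to 57.5 uM) added 1 h before LPS (250 ng/mL) and ATP (1.25 mM) stimulation; lower signal means less secretion.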
% is set by controls: 0 for no effect and ±100 for the full control effect.

Compound	activity change
O=C(O)C1C(c2ccccc2)C(C(=O)Oc2ccccc2)C1c1ccccc1 (stereo not given)	inactive: -22.6%
O=C(OCCCC(=O)N1CCOCC1)c1ccccc1	inconclusive: -30.5%
ClC1(Cl)CC1CSc1nc2ccccc2[nH]1 (stereo not given)	inactive: -5.96%
Brc1ccc(CNc2cc3c(cc2Br)OCCO3)cc1	inconclusive: -45.7%
OC(c1ccc2ccccc2c1)c1ncc(-c2cccc3ccccc23)[nH]1 (stereo not given)	inconclusive: -31.7%
O=C(/C=C/c1cccs1)Nc1nncs1	inconclusive: -42.9%
O=C1N=C(N2CCOCC2)S/C1=C\C=C/c1ccccc1	inactive: -18%
O=C(Nc1ccc(CN2CCOCC2)cc1)c1cccc(-c2cc3ccccc3oc2=O)c1	inconclusive: -38.8%
CCO[C@H]1OC(C(=O)N2CCN(Cc3ccccc3)CC2)=C[C@@H](c2ccc(C(F)(F)F)cc2)[C@@H]1CCCO	active: -59.6%
Cc1ccsc1C(=O)Nc1ccc(F)c([N+](=O)[O-])c1	inconclusive: -45.3%
Fc1ccc(N/N=C/C=C/c2ccccc2)c(F)c1	inconclusive: -46.9%
O=C(COC(=O)Cc1ccc(S(=O)(=O)N2CCOCC2)s1)Nc1ccccc1	inconclusive: -48.2%
COC1CCN(Cc2c(C(=O)N3CCN(C4CCCCC4)CC3)nc3ccccn23)CC1	inactive: 15.6%
O=C(Cn1cc(C(F)(F)F)ccc1=O)N/N=C/c1ccc(Cl)c(Cl)c1	inconclusive: -42.3%
O=C(CSc1nnc(-c2ccc(C(F)(F)F)cn2)o1)Nc1cccc(Cl)c1	inactive: 1.25%
CCOC(=O)c1ccsc1NC(=O)c1ccco1	inactive: -14.5%
Fc1ccc(CNCc2ccc(Br)cc2)cc1	inconclusive: -46.4%
CC(C)(C)c1ccc(C(=O)N2CCC(=O)N([C@H](COCc3ccccc3)Cc3ccccc3)CC2)cc1	inconclusive: -33.7%
CSc1ncc(Cl)c(C(=O)Nc2cccc(C)c2)n1	inactive: -6.65%
Cc1cccc(C)c1NC(=O)C1(C)CCC(=O)N1c1cc(C(C)(C)C)nn1C (stereo not given)	inactive: -2.16%
O=C(NCc1cccc(C(F)(F)F)c1)C1CCC(=O)N(C2CCCCCC2)C1 (stereo not given)	inconclusive: -34.3%
Fc1ccc(Cn2c(SCc3ccc(F)c(F)c3)nnc2C(F)(F)F)cc1	inconclusive: -30.7%

Compound	activity change
Cc1ccc(S/C(=N\S(=O)(=O)c2ccc(Cl)cc2)c2ccccc2)cc1	inconclusive: -49.6%
CCc1cccc(OCC(=O)Nc2ccccc2N2CCCC2)c1	inactive: -7.5%
CCOCCCn1c(=S)[nH]c2cc(C(=O)NCC(OC)OC)ccc2c1=O	inconclusive: -41.9%
Cc1ccc(NC(=O)C[n+]2ccn(C3=C([O-])c4ccccc4C3=O)c2)cc1	inactive: -3.37%
Cc1ccc(C(=O)n2cnnc2N)cc1C	inconclusive: -35.3%
CC(=O)Nc1ccc(Nc2nnc(-c3ccc(C)c(S(=O)(=O)NCCO)c3)c3ccccc23)cc1	inconclusive: -45%
Cc1ccc(-n2nc3c(=O)n(CCCC(=O)NCc4ccccc4F)nc(C)c3c2C)cc1	inconclusive: -38.7%
C=CCn1c(SCc2c(C(=O)OC)sc(N)c2C(=O)OC)nnc1-c1ccc(Br)cc1	inactive: -9.82%
COc1ccccc1NC(=O)c1c(N=Cc2c(O)ccc3ccccc23)cnn1C	inactive: 61.5%
O=C1NC(=O)C(=Cc2ccccc2[N+](=O)[O-])S1	inconclusive: -34.5%
CCOC(=O)CN1C(=O)S/C(=C\c2ccc(-c3ccc(C(=O)O)c(Cl)c3)o2)C1=O	inconclusive: -42.7%
CCOc1ccccc1NC(=O)/C=C/c1ccc(S(=O)(=O)N2CCOCC2)cc1	inactive: -7.02%
O=S(=O)(NC1CCCCCC1)c1cccc(Cl)c1	inconclusive: -41.2%
COc1ccc(N2CCOCC2)c(NC(=O)c2cccnc2)c1	inactive: -6.48%
CCOC(=O)Cn1nc(/C=C/c2ccc(OC)cc2)ccc1=O	inactive: -29.4%
COc1ccc(C(=O)N/N=C/c2ccc(OC)c(CSc3ccccn3)c2)cc1	inconclusive: -41.3%
CN(C)S(=O)(=O)c1cccc(NC(=O)C2Cc3ccccc3CN2C(=O)c2ccco2)c1 (stereo not given)	inactive: -11.1%
Cc1ccc(NC(=O)NNC(=O)c2ccccc2)cc1	inconclusive: -31.8%
O=C(c1ccc(C(F)(F)F)cc1)N1CCC(=O)N(C(COCc2ccc(C(F)(F)F)cc2)Cc2ccccc2)CC1 (stereo not given)	active: -81.9%
COC(=O)c1ccc(-c2ccco2)n1Cc1nc(-c2ccc(OC)c(OC)c2)oc1C	inconclusive: -38%
CN(C)c1ccc(CNC2CC(C)(C)NC(C)(C)C2)cc1	inconclusive: -33.6%
O=C(O)c1cccc(NS(=O)(=O)c2cccc(C(=O)Nc3ccccc3[N+](=O)[O-])c2)c1	inactive: 2.49%

Compound	activity change
OC(CNCc1ccc(F)cc1)(c1ccc(F)cc1)c1ccc(F)cc1	active: -54.7%
Cc1ccc(C2C(C#N)=C(N)Oc3n[nH]c(-c4cccs4)c32)s1 (stereo not given)	inconclusive: -33.7%
COc1ccccc1NC(=O)Cn1nnc(-c2ccccc2NC(=O)c2ccco2)n1	inactive: 12.2%
COc1ccc(NC(=O)CSCC(=O)Nc2ccc(C)c(S(=O)(=O)N3CCCCCC3)c2)cc1	inactive: -11%
Cc1ccc(-c2nc(NCCN3CCOCC3)c3ccccc3n2)cc1	active: -59.1%
Cc1cc2cc(C(c3nnnn3C3CCCC3)N(Cc3cccnc3)Cc3ccco3)c(=O)[nH]c2cc1C (stereo not given)	inconclusive: -42.6%
Cc1ccccc1CN1C(=O)c2ccccc2S1(=O)=O	inactive: -22.2%
Cc1ccc2nc(CCl)[n+]([O-])c(-c3ccccc3)c2c1	inconclusive: -42.7%
CC(C)(C)C(=O)N(Cc1ccc(Cl)cc1)Cc1cccnc1	inactive: 0%
CC(C)C[C@H]1CN([C@@H](CC(C)C)CN2CCCC2CN2C(=S)NC[C@@H]2Cc2ccc(O)cc2)C(=S)N1CC1CCCCCC1 (stereo not given in full)	inconclusive: -38.5%
CC(NC(=O)CCC(=O)Nc1ccccc1O)c1ccccc1 (stereo not given)	inactive: 15.1%
COc1cc([N+](=O)[O-])cc2sc(NC(C)=O)nc12	inconclusive: -31%
CCCCNC(=O)Nc1nnc(-c2ccc(OCC)cc2)o1	inactive: -9.98%
COc1cc(CNCCN2CCOCC2)ccc1OCc1cccc(Cl)c1	inconclusive: -44%
COc1ccc(OC)c(CNC(=O)Cn2nc(C)c3c(C)n(-c4ccc(C)cc4)nc3c2=O)c1	inconclusive: -45.4%
COc1ccc(-c2csc(N3CCN(c4cc(C)nc5ccccc45)CC3)n2)cc1OC	active: -101%
COC(=O)[C@]1(Cc2ccccc2)N[C@H](c2ccc(-c3cccc(Cl)c3)c(OC)c2)[C@@H]2C(=O)N(C)C(=O)[C@@H]21	inconclusive: -48.4%
CCN(CC)CCNc1nc(-c2ccc(OC(F)F)cc2)c(C)s1	inconclusive: -44.1%
CCOc1ccccc1C(=O)NC1CC2CCCC(C1)N2Cc1nnnn1Cc1ccco1 (stereo not given)	inconclusive: -42.1%
Cc1cccc(C)c1NC(=O)N1CCC(n2c(=O)[nH]c3ccccc32)CC1	inconclusive: -34.9%
O=C1OC(/C(=C\Nc2ccc(F)cc2F)[N+](=O)[O-])c2ccccc21 (stereo not given)	active: -97.5%
Cc1cc(C)cc(NC(=O)N2CCCN(Cc3c(F)cccc3Cl)CC2)c1	inconclusive: -44.9%

Compound	activity change
CC(C)C(=O)Nc1ccc(S(=O)(=O)N2CCC(c3nc4ccccc4[nH]3)CC2)cc1	inactive: -22.6%
CCN1C=CC(=C2C(=O)c3ccccc3C2=O)C=C1	inconclusive: -39.6%
COCCn1c(-c2ccccc2)cnc1SCC(=O)Nc1cccc2ccccc12	inconclusive: -32%
Cc1cccc(N2CCN(C(=O)c3ccc(NS(=O)(=O)c4ccc5[nH]c(=O)[nH]c5c4)cc3)CC2)c1C	inconclusive: -34.5%
COc1ccc(C2CC(c3ccc4ccccc4c3)=NN2C(=O)CN2C(=O)CCC2=O)cc1 (stereo not given)	inconclusive: -41.8%
COCc1cc(CNC(=O)C2CCC(=O)N(Cc3ccccc3F)C2)[nH]n1 (stereo not given)	inactive
CCOC(=O)N1CCC(N(CCN(C)C)C(=S)Nc2cccc(SC)c2)CC1	inconclusive: -30.6%
COc1ccccc1N1CCN(C(=O)CN2C(=O)c3cccc4cccc(c34)C2=O)CC1	inconclusive: -42.7%
O=c1c2ccccc2nc2c3ccccc3c(NCc3ccccn3)nn12	inconclusive: -36.7%
COc1ccc(C)cc1S(=O)(=O)Nc1cccc(-c2ccc(N3CCCCCC3)nn2)c1	inconclusive: -39.1%
COc1cccc(C(=O)Nc2sc(C(C)C)cc2C(N)=O)c1OC	inconclusive: -30.5%
CCCNC(=O)CSc1nc(Cc2ccccc2)nc2ccccc12	active: -58.7%
CCCCn1c(SCC(=O)Nc2ccc(OC)cc2)nc2ccc(N3CCOCC3)cc2c1=O	inconclusive: -40.6%
COC(=O)c1ccc(NC2=CC(=O)CC(C)(C)C2)cc1	inconclusive: -41.5%
CC(CCN1CCC(CN2C(=S)NCC2Cc2ccccc2)CC1)c1ccccc1 (stereo not given)	inconclusive: -43.6%
Cc1ccc(Nc2nc3ccccc3nc2Nc2c(C)n(C)n(-c3ccccc3)c2=O)cc1	inactive: 14.3%
O=C(c1ccc(OC2CCN(C/C=C/c3ccccc3)CC2)cc1)N1CCCCC1	inconclusive: -35.6%
CCCC(O)(c1ccc(Br)cc1)C(CN1CCOCC1)c1ccc(Cl)cc1 (stereo not given)	active: -84.1%
COc1ccccc1-c1cnc(C(O)c2ccc(F)c(C)c2)[nH]1 (stereo not given)	inactive: 19.1%
